Data as given in PubChem BioAssay AID1030 (National Center for Advancing Translational Sciences (NCATS), 2008).
The campaign covered roughly 220,000 compounds. About 16,000 (7.3%) were called active. Inconclusive means that the source gave no clear call. Such entries were picked first, then a sample of the others. Calls come from the whole dose curve; as a rule, active = well fitted inhibition curve with a large enough effect (not every such curve was filed as active); inconclusive = small, poorly fitted or top-dose-only effect, or another doubt; inactive = no such curve, though single readings can be large or run the other way. No potency is given beside an inconclusive call; the fits are too rough.

Target: Aldehyde dehydrogenase 1A1 (Homo sapiens) (UniProt P00352)
Experiment: qHTS Assay for Inhibitors of Aldehyde Dehydrogenase 1 (ALDH1A1);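 for activity, negative = inhibition: plate controls were no enzyme wells and a reference inhibitor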
Conditions: Purified ALDH1A1, NADH fluorescence, propionaldehyde substrate; series mostly up to 75.3 µM
Potency is the fitted concentration of half-maximal effect; tags give direction and shape of the fitted curve.

Chain of UniProt P00352 (P00352 whole entry, looked up): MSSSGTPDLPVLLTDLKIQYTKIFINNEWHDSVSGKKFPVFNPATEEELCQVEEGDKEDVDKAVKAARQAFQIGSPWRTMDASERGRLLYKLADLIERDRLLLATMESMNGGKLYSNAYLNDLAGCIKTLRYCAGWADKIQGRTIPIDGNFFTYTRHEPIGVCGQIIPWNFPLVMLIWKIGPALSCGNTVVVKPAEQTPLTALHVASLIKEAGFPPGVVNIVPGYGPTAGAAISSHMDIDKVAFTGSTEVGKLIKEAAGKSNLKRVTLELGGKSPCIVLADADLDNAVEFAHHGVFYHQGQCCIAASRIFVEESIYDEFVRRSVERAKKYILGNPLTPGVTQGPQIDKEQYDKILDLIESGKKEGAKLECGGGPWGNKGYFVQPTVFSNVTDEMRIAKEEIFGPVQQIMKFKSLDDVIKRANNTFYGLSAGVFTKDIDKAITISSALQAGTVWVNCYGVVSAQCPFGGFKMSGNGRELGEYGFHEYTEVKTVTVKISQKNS

| SMILES | Potency | activity, negative = inhibition |
| --- | --- | --- |
| N#Cc1ccc(-n2nccc2-c2cnc3n(c2=O)CCS3)cc1 | inactive | – |
| Cc1ccc(N2CCN(C(=O)c3ccccc3NC(=O)C3CC=CCC3C(=O)O)CC2)cc1 (configuration not stated) | inconclusive [inhibitor, single point] | – |
| Cc1ccccc1-c1nnc(-c2ccc(Br)cc2)o1 | inactive | – |
| CN(Cc1nc(-c2cccs2)no1)CC1(N2CCOCC2)CCCCC1 | inactive | – |
| O=C(O)Cc1ccc(S(=O)(=O)Nc2ccccc2C(=O)O)cc1 | inconclusive [inhibitor, single point] | – |
| Cc1ccc(-c2cc(-c3nnc(SCC(=O)NCC(C)C)n3N)c3ccccc3n2)cc1 | inconclusive [inhibitor, full curve] | – |
| COC(=O)c1sc(N2C(=O)C(O)=C(C(=O)c3ccc(C)o3)C2c2ccc(F)cc2)nc1C (configuration not stated) | inconclusive [inhibitor, single point] | – |
| Clc1ccccc1CN1CCN(CCCc2ccccc2)CC1 | inconclusive [inhibitor, single point] | – |
| CCn1nnnc1NCc1cccn1C | inactive | – |
| Cc1ccc(C(=O)NCC(C)(C)N2CCOCC2)s1 | inactive | – |
| NC(=O)c1ccc(NC(=O)COC(=O)C(Cc2ccccc2)NC(=O)c2ccccc2)cc1 (configuration not stated) | active: 0.891 µM | – |
| C[C@@H](N=C(N)N)C(=O)O | – | inactive: 14.3% [at 13.5 µM] |
| COC(=O)c1cc(NC(=O)Nc2ccccc2OC)cc(C(=O)OC)c1 | inactive | – |
| COc1cccc(/C=N/NC(=S)Nc2cccc(C(=O)O)c2)c1 | active: 31.6 µM | – |
| C=CCn1cnc2c(nnn2-c2ccc(Cl)cc2)c1=O | inconclusive [inhibitor, single point] | – |
| COc1cc(OC)c(OC)cc1/C=N/NC(=S)NCC1CCCO1 (configuration not stated) | inconclusive [inhibitor, partial curve] | – |
| NC(CSCc1ccccc1Cl)C(=O)O (configuration not stated) | inconclusive [inhibitor, single point] | – |
| CCOC(=O)C1CCCN(C(=O)c2cnn3c(C(F)F)cc(-c4ccc(C)cc4)nc23)C1 (configuration not stated) | inconclusive [inhibitor, single point] | – |
| COc1ccc(C(=O)c2coc3ccc(O)c(CN4CCCCC4)c23)cc1 | active: 12.6 µM | – |
| O=C(NCCC1=CCCCC1)C1CCN(S(=O)(=O)c2ccc(Br)s2)CC1 | active: 18.9 µM | – |
| COc1ccc(N/C(N)=N/c2nc(CSc3ccc(C)cc3)cc(=O)[nH]2)cc1 | inconclusive [inhibitor, single point] | – |
| COc1ccc(S(=O)(=O)Nc2c3ccccc3nc(=O)n2-c2ccccc2)cc1 | inconclusive [inhibitor, full curve] | – |
| O=C(COC(=O)C1CC(O)CN1S(=O)(=O)c1ccc(Cl)cc1)c1ccccc1Cl (configuration not stated) | active: 17.8 µM | – |
| O=C(C[n+]1ccc(-c2nnc3n2CCC3)cc1)c1ccc(Cl)cc1 | inconclusive [inhibitor, partial curve] | – |

| SMILES | Potency | activity, negative = inhibition |
| --- | --- | --- |
| CCOC(=O)CNC(=O)c1ccc2[nH]c3ccccc3c2c1 | inconclusive [inhibitor, single point] | – |
| CC(C)OC(=O)CSc1nnc(-c2ccccc2)n1N | inactive | – |
| CCS(=O)(=O)N1CCN(c2ccc([N+](=O)[O-])c(NC(C)c3ccccc3)c2)CC1 (configuration not stated) | inconclusive [inhibitor, partial curve, poor fit] | – |
| CC(C)NC(=O)c1cc2nc(-c3ccco3)cc(C(F)(F)F)n2n1 | inconclusive [inhibitor, single point] | – |
| O=C(/C=C/c1cccc(F)c1)c1ccc(N2CCOCC2)cc1 | active: 12.6 µM | – |
| COc1cc(C(=O)Nc2ccc3c(c2)OCCO3)ccc1-n1cnnn1 | inconclusive [inhibitor, partial curve] | – |
| O=C(Nc1nc(-c2ccc(-c3ccccc3)cc2)cs1)c1cnccn1 | inactive | – |
| CCCCC1=CC2=C(c3ccco3)C(=O)C(C)(OC(=O)c3ccc(OC)cc3)C(=O)C2=CN1CCN1CCOCC1 (configuration not stated) | inconclusive [inhibitor, single point] | – |
| CCCCOc1cccc(C(=O)NC(=S)Nc2cccnc2)c1 | active: 25.1 µM | – |
| COc1cc(/C=N/NC(=O)c2cc(-c3c(C)nn(-c4ccccc4)c3C)n[nH]2)ccc1O | inconclusive [inhibitor, single point] | – |
| COC(=O)c1cccc(-n2nnnc2SCC(=O)Nc2nc3c(s2)CCCC3)c1 | inconclusive [inhibitor, single point] | – |
| O=C(Nc1ccc2c(c1)C(=O)N(c1ccccc1)C2=O)C1CCCO1 (configuration not stated) | active: 14.1 µM | – |
| COc1ccc(/C(O)=C2/C(=O)C(=O)N(c3ncccn3)C2c2ccc(C(C)(C)C)cc2)cc1 (configuration not stated) | inconclusive [inhibitor, partial curve] | – |
| Cc1c(Cl)ccc(S(=O)(=O)N2CCN=C2c2ccccc2)c1Cl | inactive | – |
| COc1ccc2[nH]c(=O)c(C(c3nnnn3C3CCCCC3)N3CCN(C)CC3)cc2c1 (configuration not stated) | inconclusive [inhibitor, single point] | – |
| FC(F)(F)c1ccccc1-c1cncnc1NCc1cccs1 | inconclusive [inhibitor, single point] | – |
| CCn1c(-c2ccc(F)cc2)cnc1SCC(=O)N1CCCCC1C (configuration not stated) | inconclusive [inhibitor, single point] | – |
| CC(=O)Nc1sc2c(c1CN1CCN(c3ccccn3)CC1)CCCC2 | active: 22.4 µM | – |
| O=C1CCCN1CCCNc1ncnc2c1[nH]c1ccccc12 | inconclusive [inhibitor, partial curve] | – |
| CSc1oc(-c2ccco2)nc1S(=O)(=O)c1ccc(Br)cc1 | inconclusive [inhibitor, single point] | – |
| O=C(O)/C=C/c1ccc2c(-c3ccccc3)onc2c1 | inconclusive [inhibitor, single point] | – |
| C(=N\n1cnnc1)/c1cn(-c2cccs2)nc1-c1ccccc1 | inconclusive [inhibitor, partial curve] | – |
| O=C(NC1CCCCC1)N(Cc1cc2cc3c(cc2[nH]c1=O)OCCO3)C1CCCCC1 | inconclusive [inhibitor, single point] | – |
| CCN(CC(=O)NCCc1ccccc1)S(=O)(=O)c1ccccc1 | active: 35.5 µM | – |

| SMILES | Potency | activity, negative = inhibition |
| --- | --- | --- |
| COc1cccc(C(c2nnnn2Cc2ccccc2)N2CCN(C3CCCC3)CC2)c1OC (configuration not stated) | inconclusive [inhibitor, single point] | – |
| COc1ccc(/C(C)=N/NC(=S)NCCc2ccccc2)cc1 | inactive | – |
| CN(C)C(=O)COC(=O)c1cccnc1Nc1ccccc1F | inactive | – |
| CCOc1ccc(S(=O)(=O)Nc2ccc(F)cc2)c(C)c1C | inconclusive [inhibitor, partial curve] | – |
| C/C(CC(=O)Nc1cccc2c1CCCC2)=N\NC(=O)COc1ccccc1 | active: 9.46 µM | – |
| CN(C)NC(=S)Nc1ccc(S(=O)(=O)N2CCCCC2)cc1 | inactive | – |
| CC1(C)CC(=O)c2cc(OCC(=O)NCCN3CCCc4ccccc43)ccc2O1 | inconclusive [inhibitor, single point] | – |
| CN1CCN(C(=O)c2ccc(C(F)(F)F)cc2)CC1 | inactive | – |
| Cc1ccc(-c2nsc3c(N4CCN(C(=O)c5ccco5)CC4)ncnc23)cc1 | inconclusive [inhibitor, partial curve] | – |
| O=C(COC(=O)/C=C/c1cccs1)NC(=O)Cc1ccccc1 | inconclusive [inhibitor, single point] | – |
| Cc1ccc2nc(Nc3ccc4[nH]c(=O)[nH]c4c3)c(-n3nc(C)cc3C)nc2c1 | inactive | – |
| COc1cccc(/C=N/NC(=O)CC2C(=O)NN=C2C)c1O (configuration not stated) | inactive | – |
| O=C(COC(=O)C1c2ccccc2Oc2ccccc21)Nc1ccc2c(c1)OCO2 | inconclusive [inhibitor, single point] | – |
| Cc1ccc(C(=O)/C=C/c2ccc(-c3ccccc3[N+](=O)[O-])o2)cc1 | inconclusive [inhibitor, partial curve] | – |
| Cc1cc(S(=O)(=O)N2CCC(NC(=O)C34CC5CC(CC(C5)C3)C4)CC2)ccc1-n1cnnn1 | inconclusive [inhibitor, partial curve] | – |
| Cc1cccc(NC(=S)NC(=O)c2cc(-c3ccccc3)nc3ccccc23)c1 | inconclusive [inhibitor, single point] | – |
| O=C(Cn1c(=O)oc2ccccc21)Nc1nnc(N2CCCCCC2)s1 | inconclusive [inhibitor, full curve] | – |
| Cc1ccc(/C=C2/NC(=O)N(c3ccccc3)C2=O)o1 | active: 10 µM | – |
| CSc1ccc(CN2C(=O)NC3(CCCCC3)C2=O)cc1 | inconclusive [inhibitor, partial curve] | – |
| Cc1ccccc1C(=O)Nc1ccc(N2CCCC2)cc1 | inconclusive [inhibitor, single point] | – |
| COc1ccc(O[C@H]2C=C[C@@H](c3ccccc3)O[C@@H]2CO/N=C(\C)CCN2CCc3nc(-c4ccccc4)c(-c4ccccc4)cc3C2)cc1 | inactive | – |
| CCn1ncc(Cl)c1C(=O)Nc1cc([N+](=O)[O-])ccc1OC | inactive | – |
| CCOc1cc(NS(=O)(=O)c2ccccc2)c(OCC)cc1NC(=O)c1ccco1 | active: 7.94 µM | – |
| COc1ccccc1OC(=O)CCc1nc2ccccc2s1 | inconclusive [inhibitor, single point] | – |
